Reference: patent US10299477B2 (priority 2015, dated 2019)

Tests used:
[1] = test system: Magnaporthe grisea; assay type: in vivo; conditions: rice blast, Magnaporthe grisea; 250 ppm spray
[2] = test system: Phytophthora infestans; assay type: in vivo; conditions: late blight on tomato, Phytophthora infestans; 250 ppm spray, 5-10 days after inoculation

SMILES: CCn1c(-c2c(F)cc(F)cc2F)c(-c2cc(F)ccc2F)cc(Cl)c1=O [Compound 425]
- Test A (control value class) [1]: H (H shows more than 50% of control values)
- Test F (control value class) [2]: L (L shows 50% or less of control values)

SMILES: Cn1c(-c2c(F)cc(F)cc2F)c(-c2cc(F)ccc2F)ccc1=O [Compound 426]
- Test A (control value class) [1]: H (H shows more than 50% of control values)
- Test F (control value class) [2]: L (L shows 50% or less of control values)

SMILES: Cn1c(-c2c(F)cc(F)cc2F)c(-c2cc(F)ccc2F)cc(Cl)c1=O [Compound 427]
- Test A (control value class) [1]: H (H shows more than 50% of control values)
- Test F (control value class) [2]: L (L shows 50% or less of control values)

SMILES: O=c1ccc(-c2ccc(Cl)cc2F)c(-c2c(F)cccc2F)n1CC(F)F [Compound 428]
- Test A (control value class) [1]: H (H shows more than 50% of control values)
- Test F (control value class) [2]: L (L shows 50% or less of control values)

SMILES: CCn1c(-c2c(F)cc(OC)cc2F)c(-c2ccccc2Cl)ccc1=O [Compound 430]
- Test A (control value class) [1]: H (H shows more than 50% of control values)
- Test F (control value class) [2]: L (L shows 50% or less of control values)

SMILES: Cn1c(-c2c(F)cc(F)cc2F)c(-c2ccccc2Cl)ccc1=O [Compound 431]
- Test A (control value class) [1]: H (H shows more than 50% of control values)
- Test F (control value class) [2]: H (H shows more than 50% of control values)

SMILES: Cn1c(-c2c(F)cc(F)cc2F)c(-c2ccccc2Cl)cc(Cl)c1=O [Compound 432]
- Test A (control value class) [1]: H (H shows more than 50% of control values)
- Test F (control value class) [2]: H (H shows more than 50% of control values)

SMILES: COc1cc(F)c(-c2c(-c3ccccc3Cl)ccc(=O)n2C)c(F)c1 [Compound 433]
- Test A (control value class) [1]: H (H shows more than 50% of control values)
- Test F (control value class) [2]: L (L shows 50% or less of control values)

SMILES: CCn1c(-c2c(F)cc(OC)cc2F)c(-c2ccccc2Cl)cc(Cl)c1=O [Compound 434]
- Test A (control value class) [1]: H (H shows more than 50% of control values)
- Test F (control value class) [2]: L (L shows 50% or less of control values)

SMILES: COc1cc(F)c(-c2c(-c3ccccc3Cl)cc(Cl)c(=O)n2C)c(F)c1 [Compound 435]
- Test A (control value class) [1]: H (H shows more than 50% of control values)
- Test F (control value class) [2]: L (L shows 50% or less of control values)

SMILES: CCN1C(=O)CCC(c2cc(F)cc(F)c2F)=C1c1c(F)cccc1F [Compound 436]
- Test A (control value class) [1]: L (L shows 50% or less of control values)
- Test F (control value class) [2]: L (L shows 50% or less of control values)

SMILES: CN1C(=O)CCC(c2cc(F)cc(F)c2F)=C1c1c(F)cccc1F [Compound 437]
- Test A (control value class) [1]: L (L shows 50% or less of control values)
- Test F (control value class) [2]: L (L shows 50% or less of control values)

SMILES: CCn1c(-c2c(F)cccc2F)c(-c2cc(F)cc(F)c2F)ccc1=O [Compound 438]
- Test A (control value class) [1]: H (H shows more than 50% of control values)
- Test F (control value class) [2]: L (L shows 50% or less of control values)

SMILES: Cn1c(-c2c(F)cccc2F)c(-c2cc(F)cc(F)c2F)ccc1=O [Compound 439]
- Test A (control value class) [1]: H (H shows more than 50% of control values)
- Test F (control value class) [2]: L (L shows 50% or less of control values)

SMILES: CCn1c(-c2c(F)cccc2F)c(-c2cc(F)cc(F)c2F)cc(Cl)c1=O [Compound 440]
- Test A (control value class) [1]: H (H shows more than 50% of control values)
- Test F (control value class) [2]: L (L shows 50% or less of control values)

SMILES: CCn1c(-c2c(F)cccc2F)c(-c2cc(F)cc(F)c2F)cc(Br)c1=O [Compound 441]
- Test A (control value class) [1]: H (H shows more than 50% of control values)
- Test F (control value class) [2]: L (L shows 50% or less of control values)

SMILES: Cn1c(-c2c(F)cccc2F)c(-c2cc(F)cc(F)c2F)cc(Cl)c1=O [Compound 442]
- Test A (control value class) [1]: H (H shows more than 50% of control values)
- Test F (control value class) [2]: L (L shows 50% or less of control values)

SMILES: Cn1c(-c2c(F)cccc2F)c(-c2cc(F)cc(F)c2F)cc(Br)c1=O [Compound 443]
- Test A (control value class) [1]: H (H shows more than 50% of control values)
- Test F (control value class) [2]: L (L shows 50% or less of control values)

SMILES: CCn1c(-c2c(F)cccc2F)c(-c2cc(Cl)ccc2Cl)ccc1=O [Compound 444]
- Test A (control value class) [1]: H (H shows more than 50% of control values)
- Test F (control value class) [2]: L (L shows 50% or less of control values)

SMILES: CCn1c(-c2c(F)cccc2F)c(-c2cc(Cl)ccc2Cl)cc(Cl)c1=O [Compound 445]
- Test A (control value class) [1]: H (H shows more than 50% of control values)
- Test F (control value class) [2]: L (L shows 50% or less of control values)

SMILES: Cn1c(-c2c(F)cccc2F)c(-c2cc(Cl)ccc2Cl)ccc1=O [Compound 446]
- Test A (control value class) [1]: H (H shows more than 50% of control values)
- Test F (control value class) [2]: L (L shows 50% or less of control values)

SMILES: Cn1c(-c2c(F)cccc2F)c(-c2cc(Cl)ccc2Cl)cc(Cl)c1=O [Compound 447]
- Test A (control value class) [1]: H (H shows more than 50% of control values)
- Test F (control value class) [2]: L (L shows 50% or less of control values)

SMILES: O=c1ccc(-c2cc(Cl)ccc2Cl)c(-c2c(F)cccc2F)n1CC(F)F [Compound 448]
- Test A (control value class) [1]: H (H shows more than 50% of control values)
- Test F (control value class) [2]: L (L shows 50% or less of control values)

SMILES: O=c1c(Cl)cc(-c2cc(Cl)ccc2Cl)c(-c2c(F)cccc2F)n1CC(F)F [Compound 449]
- Test A (control value class) [1]: H (H shows more than 50% of control values)
- Test F (control value class) [2]: L (L shows 50% or less of control values)

SMILES: CCn1c(-c2c(F)cccc2F)c(-c2cc(Cl)cc(Cl)c2Cl)ccc1=O [Compound 450]
- Test A (control value class) [1]: H (H shows more than 50% of control values)
- Test F (control value class) [2]: L (L shows 50% or less of control values)

SMILES: CCn1c(-c2c(F)cccc2F)c(-c2cc(Cl)cc(Cl)c2Cl)cc(Cl)c1=O [Compound 451]
- Test A (control value class) [1]: H (H shows more than 50% of control values)
- Test F (control value class) [2]: L (L shows 50% or less of control values)

SMILES: Cn1c(-c2c(F)cccc2F)c(-c2cc(Cl)cc(Cl)c2Cl)ccc1=O [Compound 452]
- Test A (control value class) [1]: H (H shows more than 50% of control values)
- Test F (control value class) [2]: L (L shows 50% or less of control values)

SMILES: Cn1c(-c2c(F)cccc2F)c(-c2cc(Cl)cc(Cl)c2Cl)cc(Cl)c1=O [Compound 453]
- Test A (control value class) [1]: H (H shows more than 50% of control values)
- Test F (control value class) [2]: L (L shows 50% or less of control values)

SMILES: O=c1ccc(-c2cc(Cl)cc(Cl)c2Cl)c(-c2c(F)cccc2F)n1CC(F)F [Compound 454]
- Test A (control value class) [1]: H (H shows more than 50% of control values)
- Test F (control value class) [2]: L (L shows 50% or less of control values)

SMILES: O=c1c(Cl)cc(-c2cc(Cl)cc(Cl)c2Cl)c(-c2c(F)cccc2F)n1CC(F)F [Compound 455]
- Test A (control value class) [1]: H (H shows more than 50% of control values)
- Test F (control value class) [2]: L (L shows 50% or less of control values)

SMILES: C#CCN1C(=O)CCC(c2cc(OC)ccc2Cl)=C1c1c(F)cccc1F [Compound 456]
- Test A (control value class) [1]: H (H shows more than 50% of control values)
- Test F (control value class) [2]: L (L shows 50% or less of control values)

SMILES: Cc1cc(-c2cc(F)cc(F)c2F)c(-c2c(F)cccc2F)n(C)c1=O [Compound 457]
- Test A (control value class) [1]: H (H shows more than 50% of control values)
- Test F (control value class) [2]: L (L shows 50% or less of control values)

SMILES: C#CCn1c(-c2c(F)cccc2F)c(-c2cc(OC)ccc2Cl)ccc1=O [Compound 458]
- Test A (control value class) [1]: H (H shows more than 50% of control values)
- Test F (control value class) [2]: L (L shows 50% or less of control values)

SMILES: CCn1c(-c2c(F)cccc2F)c(-c2cc(F)cc(F)c2F)cc(C)c1=O [Compound 459]
- Test A (control value class) [1]: H (H shows more than 50% of control values)
- Test F (control value class) [2]: L (L shows 50% or less of control values)

SMILES: COc1ccc(Cl)c(-c2ccc(=O)n(CC#N)c2-c2c(F)cccc2F)c1 [Compound 460]
- Test A (control value class) [1]: H (H shows more than 50% of control values)
- Test F (control value class) [2]: L (L shows 50% or less of control values)

SMILES: CCn1c(-c2c(F)cc(F)cc2F)c(-c2cc(F)ccc2Cl)cc(C)c1=O [Compound 461, 5-(2-chloro-5-fluorophenyl)-1-ethyl-3-methyl-6-(2,4,6-trifluorophenyl)pyridine-2(1H)-one]
- Test A (control value class) [1]: H (H shows more than 50% of control values)
- Test F (control value class) [2]: L (L shows 50% or less of control values)

SMILES: C#CCn1c(-c2c(F)cccc2F)c(-c2cc(OC)ccc2Cl)cc(Cl)c1=O [Compound 462]
- Test A (control value class) [1]: H (H shows more than 50% of control values)
- Test F (control value class) [2]: L (L shows 50% or less of control values)

SMILES: COc1ccc(Cl)c(-c2cc(Cl)c(=O)n(CC#N)c2-c2c(F)cccc2F)c1 [Compound 463]
- Test A (control value class) [1]: H (H shows more than 50% of control values)
- Test F (control value class) [2]: L (L shows 50% or less of control values)

SMILES: CCn1c(-c2c(F)cc(F)cc2F)c(-c2cc(F)cc(F)c2F)ccc1=O [Compound 464]
- Test A (control value class) [1]: H (H shows more than 50% of control values)
- Test F (control value class) [2]: L (L shows 50% or less of control values)

SMILES: CCn1c(-c2c(F)cc(F)cc2F)c(-c2cc(F)cc(F)c2F)cc(Cl)c1=O [Compound 465]
- Test A (control value class) [1]: H (H shows more than 50% of control values)
- Test F (control value class) [2]: L (L shows 50% or less of control values)

SMILES: Cn1c(-c2c(F)cc(F)cc2F)c(-c2cc(F)cc(F)c2F)ccc1=O [Compound 466]
- Test A (control value class) [1]: H (H shows more than 50% of control values)
- Test F (control value class) [2]: L (L shows 50% or less of control values)

SMILES: Cn1c(-c2c(F)cc(F)cc2F)c(-c2cc(F)cc(F)c2F)cc(Cl)c1=O [Compound 467]
- Test A (control value class) [1]: H (H shows more than 50% of control values)
- Test F (control value class) [2]: L (L shows 50% or less of control values)

SMILES: CCn1c(-c2c(F)cc(OC)cc2F)c(-c2cc(F)ccc2F)ccc1=O [Compound 468]
- Test A (control value class) [1]: H (H shows more than 50% of control values)
- Test F (control value class) [2]: H (H shows more than 50% of control values)
